Measurements published in the supplement of paper PMC11417369.
The other results are listed elsewhere or left out.

Tested on: PfSIP2 AP2 domain 1 (GST-tagged)
Test: gcPBM binding intensity (ln(normalized median fluorescence intensity)); higher = stronger DNA binding
In short: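 GST-fused DNA-binding domains of P. falciparum, expressed in E. coli, were applied at about 25 μg on average for 1 h to an Agilent 4 × 180k array of primer-extended double-stranded 36-bp intergenic genomic probes and negative controls. Binding intensity is the highest Masliner-normalised natural-log median intensity across replicate spots of either probe orientation, measured with Alexa488 anti-GST antibody and a 488 nm scan.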

| Sequence | gcPBM binding intensity (ln) |
| --- | --- |
| TGTAAAAAATTTAACACACACATATATATATATATA [CACACA_site2585] | 9.65 |
| ATTACAATATATACGTGTACATATTACCACCGCTAC [XGTACX_site2308] | 7.01 |
| TTATTTATAAACATATGTACTAATACATGATTAACA [XGTACX_site7645] | 7.04 |
| GACATATATATAAAATGTACATATATATTTACATAT [XGTACX_site7822] | 7.03 |
| TGATAATAAGCATACACACACACACTAGAAAAAAAA [CACACA_site4558] | 7.05 |
| TGTTCTTTATTTTATTGTACTTTTAAAATTCCTTTA [XGTACX_site8058] | 7.24 |
| AAAAAAAAAAGACATGCATACGCTAATTTTTAGTTG [TGCATGCA_site300] | 6.58 |
| ATATATTTTTAAAAAAATTAAGAATTTTACATCTCC [CACACA_negctrl_site1450] | 6.87 |
| TATTATAATAAGAAGTGTACGTGTTTTTATAAATAA [XGTACX_site575] | 7.38 |
| TATAAAAAAAACGAAAAAAAAAAAAAAAATACAGGA [TGCATGCA_negctrl_site585] | 6.9 |
| ATTATGTTTCTTTTTTTTTTTAAAGGATGTCTTTTT [CACACA_negctrl_site974] | 6.72 |
| TTTAAGCAAAAACACACACACATATATATATATATA [CACACA_site349] | 9.52 |
| TATAAATATATATACACACACATATATATTATATAT [CACACA_site596] | 7.18 |
| AAAAAATGATAATATACACACTTATGGGAGAGCGCA [CACACA_site5398] | 6.92 |
| AATATTAAACAAAATAAATATATAAAAAATAAATAA [GTGCAC_negctrl_site93] | 6.79 |
| AAGTTATATTTGTGTACACATAATTTTATACTAATA [CACACA_site5553] | 7.67 |
| TATTTAATACGGACTCATAAATCTTAATAAAAAAAA [CACACA_negctrl_site434] | 7 |
| TCCCTTTGTATATATATATAAATATATATATATATA [CACACA_negctrl_site157] | 9.18 |
| TTTATCGAATATAATAGTACATAAAAAAAAAAAAAA [XGTACX_site1734] | 7.17 |
| AGATTATATAAAAAAGTGCATATTTTCATTTTTTTT [GTGCAC_site9448] | 8.47 |
| CATTAAAATGGTAAATGTACATATCCATCTTCTCAC [XGTACX_site4636] | 6.94 |
| ACATTTTTTTTGTGAGTCTTTGCGGCATCAAAATTT [XGTACX_negctrl_site348] | 6.84 |

| Sequence | gcPBM binding intensity (ln) |
| --- | --- |
| AAAAAAGAAAAAAACTGTACATGATAAATATTTATT [XGTACX_site7270] | 6.67 |
| TTATGAAGCAGACATGCATGTTATGGCTTAAATAAT [TGCATGCA_site492] | 6.89 |
| TTTTAAATAAAAAAATTAAATTAAAATATATAAAAA [XGTACX_negctrl_site490] | 6.66 |
| TGTTTATACAATATTTGTACATATATTTTTATTTTT [XGTACX_site4104] | 6.94 |
| CATTTTTACAACGTTGCACACTTCAAAAGGTTTACA [CACACA_site2760] | 7.53 |
| GATACTCTCTTTTAATGTACAAAATTTTAAAAATTA [XGTACX_site1781] | 7.58 |
| TATAAAAAAAAAAAAAGTACTTAAATATAAATAAAT [XGTACX_site5052] | 7.11 |
| GTTCCATGAGTATATACATGCATATATCTAGTTTAT [TGCATGCA_site388] | 7.13 |
| AATTAAAAAAAATACACACACACATACCCATATATA [CACACA_site5767] | 6.96 |
| AATGATATATTATAAACACACAAAGATGAATATATA [CACACA_site2818] | 6.85 |
| ATTCATTCATATGTTACACACACACCCACCCATAAA [CACACA_site9066] | 7.36 |
| TACCCTCGTATATATATACACACTAAAATACAGACA [CACACA_site4154] | 7.27 |
| AATTTATGTTTTAAAAGTACTTTTCTAATTTATAAA [XGTACX_site1593] | 6.93 |
| TATGTACAGACATATACACACCTCTATAATCTATAT [CACACA_site6482] | 7.09 |
| CTAAAGTAAATTTAAGCACACACAACGAATTTTTAT [CACACA_site8599] | 6.91 |
| TAAAATAAAAATTTATGTACACATAAAAAAACAAAA [XGTACX_site1112] | 7.15 |
| GAGAGTACCTATATTGCATGCAGACTTTTTAAATAT [TGCATGCA_site564] | 7.18 |
| TTTTTTTTTTTTTGTAGTACATTATGTATATTTTTA [XGTACX_site7810] | 6.97 |
| TTAATAAGAGAGCAATAGGTGGACTGTTTCTTTTAT [CACACA_negctrl_site1239] | 6.68 |
| GTTAAAATAATATGGTGTACAAATATATAAGTTCAT [XGTACX_site3262] | 7.12 |
| ATATATATATATAAAAGTACTTATTTTTATTTACAT [XGTACX_site4299] | 8.86 |
